This is an account of results in paper PMC4336329 (PLoS ONE, 2015).

About 2,200 (0.71%) of roughly 310,000 compounds showed an effect of 50% or more. The effect is printed as a negative number. Some of the results follow.

The target of the assay is human ether-à-go-go-related gene (hERG) potassium channel (human, UniProt Q12809). In words: primary screen, population patch clamp on CHO cells stably expressing hERG.
Chain of human ether-à-go-go-related gene (hERG) potassium channel (Q12809 whole entry, looked up): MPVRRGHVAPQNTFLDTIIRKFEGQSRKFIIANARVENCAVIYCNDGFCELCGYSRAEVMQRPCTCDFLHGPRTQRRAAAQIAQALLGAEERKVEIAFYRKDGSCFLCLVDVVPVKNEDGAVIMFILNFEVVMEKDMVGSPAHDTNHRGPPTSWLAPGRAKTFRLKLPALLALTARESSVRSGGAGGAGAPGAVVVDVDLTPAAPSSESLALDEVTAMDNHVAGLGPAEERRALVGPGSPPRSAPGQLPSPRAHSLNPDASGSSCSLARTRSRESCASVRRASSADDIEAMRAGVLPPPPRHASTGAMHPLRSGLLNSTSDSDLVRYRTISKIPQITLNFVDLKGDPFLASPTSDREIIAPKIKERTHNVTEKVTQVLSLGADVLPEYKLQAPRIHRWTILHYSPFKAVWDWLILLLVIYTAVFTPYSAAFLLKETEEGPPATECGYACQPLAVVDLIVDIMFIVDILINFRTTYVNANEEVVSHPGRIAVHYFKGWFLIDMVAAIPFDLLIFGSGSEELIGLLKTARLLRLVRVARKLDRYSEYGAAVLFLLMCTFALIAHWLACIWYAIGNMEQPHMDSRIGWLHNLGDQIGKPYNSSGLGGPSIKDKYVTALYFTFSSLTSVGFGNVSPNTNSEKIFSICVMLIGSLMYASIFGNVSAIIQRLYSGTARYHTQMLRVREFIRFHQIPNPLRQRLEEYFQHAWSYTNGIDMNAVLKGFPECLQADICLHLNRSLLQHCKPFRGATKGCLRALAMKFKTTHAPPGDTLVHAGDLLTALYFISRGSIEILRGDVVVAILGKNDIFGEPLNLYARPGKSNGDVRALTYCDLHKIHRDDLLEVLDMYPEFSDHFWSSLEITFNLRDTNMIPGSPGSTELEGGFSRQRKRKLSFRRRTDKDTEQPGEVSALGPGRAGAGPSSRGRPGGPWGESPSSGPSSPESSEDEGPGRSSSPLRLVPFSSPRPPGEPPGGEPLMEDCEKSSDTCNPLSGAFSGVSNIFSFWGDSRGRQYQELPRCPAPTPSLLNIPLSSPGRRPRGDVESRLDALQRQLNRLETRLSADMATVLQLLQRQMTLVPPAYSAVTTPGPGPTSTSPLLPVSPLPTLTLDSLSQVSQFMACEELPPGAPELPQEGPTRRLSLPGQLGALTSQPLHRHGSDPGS
Take `Cc1cccc(NC(=O)C2CCCN(S(=O)(=O)c3cccc4nsnc34)C2)n1` (stereo not drawn): the “hERG current change (%, negative = inhibition) at 1uM” value is reported as -2.04%.

Regarding `CCOC(=O)c1[nH]c(C)c(/C(O)=C2\C(=O)C(=O)N(CCN3CCOCC3)C2c2ccco2)c1C` (stereo not drawn), the “hERG current change (%, negative = inhibition) at 1uM” value is reported as 8.62%.

Take `CNC(=S)NC1CC2CCCC(C1)N2CC(C)C` (stereo not drawn): the “hERG current change (%, negative = inhibition) at 1uM” value worked out at 8.21%.

For the compound `CCCn1c(C(C)Nc2nc(-c3ccc(C)cc3)cs2)nc2cc(Cl)c(Cl)cc21` (stereo not drawn), the “hERG current change (%, negative = inhibition) at 1uM” value is 1.41%.

Take `CN(C)C(CNC(=O)CN1C(=O)NC2(CCc3ccccc32)C1=O)c1ccco1` (stereo not drawn): the “hERG current change (%, negative = inhibition) at 1uM” value stood at 19%.

For `N#Cc1ccccc1S(=O)(=O)N1CCN(CC(O)COc2ccccc2F)CC1.O=C(O)C(=O)O` (stereo not drawn), the “hERG current change (%, negative = inhibition) at 1uM” value is 11.2%.

For the compound `COc1ccc(OC)c(NC(=O)CN(C)CC(=O)Nc2ccccc2Br)c1`, the “hERG current change (%, negative = inhibition) at 1uM” value was 2.84%.

Consider `CC(CCOC1=NS(=O)(=O)c2ccccc21)NC(=O)C(=O)Nc1ccccc1` (stereo not drawn), for which the “hERG current change (%, negative = inhibition) at 1uM” value worked out at 11.9%.

In the case of `O=C(COC(=O)C1COc2ccccc2O1)Nc1cccc(S(=O)(=O)N2CCCCC2)c1` (stereo not drawn), the “hERG current change (%, negative = inhibition) at 1uM” value is listed as 0.759%.

In the case of `O=S(=O)(Nc1ncccn1)c1cc(Cl)ccc1Cl`, the “hERG current change (%, negative = inhibition) at 1uM” value is 10.5%.

Turning to `COc1ccccc1N1CCN(C(=O)c2ccc3c(=O)n(Cc4ccco4)c(=S)[nH]c3c2)CC1`, the “hERG current change (%, negative = inhibition) at 1uM” value is reported as -12.2%.

For the compound `CC1CCCCC1NC(=O)Cn1c(CN2CCCCC2)nc2ccccc2c1=O` (stereo not drawn), the “hERG current change (%, negative = inhibition) at 1uM” value amounted to 5%.

Turning to `O=S(=O)(NCCN1CCOCC1)c1ccc(-c2ccc(S(=O)(=O)NCCN3CCOCC3)cc2)cc1`, the “hERG current change (%, negative = inhibition) at 1uM” value worked out at 20.9%.

As to `COCc1cc(=O)[nH]c(Nc2nc3ccc(C)cc3o2)n1`, the “hERG current change (%, negative = inhibition) at 1uM” value turned out to be 9.6%.

As for `O=C(CN1C(=O)C2C3C=CC(C4CC34)C2C1=O)NCc1ccco1` (stereo not drawn), the “hERG current change (%, negative = inhibition) at 1uM” value is listed as 8.58%.

For the compound `Clc1ccccc1SCc1nc2ccccc2[nH]1`, the “hERG current change (%, negative = inhibition) at 1uM” value was found to be 6.88%.

As for `O=C(c1ccccc1-c1nc2ccccc2[nH]1)N1CCOCC1`, the “hERG current change (%, negative = inhibition) at 1uM” value is reported as 4.53%.

As for `C/C(=N\Nc1ccc(S(=O)(=O)Nc2ccccc2)cc1[N+](=O)[O-])c1ccc(N2CCOCC2)cc1`, the “hERG current change (%, negative = inhibition) at 1uM” value was -0.924%.

On to `CCOc1ncccc1C(=O)OCC(=O)Nc1ncc(C(F)(F)F)cc1Cl`, for which the “hERG current change (%, negative = inhibition) at 1uM” value was 10.8%.

As to `CCc1cccc(NC(=O)CN(C)S(=O)(=O)c2cccc3cccnc23)c1`, the “hERG current change (%, negative = inhibition) at 1uM” value was 1.12%.

As for `O=C(NC1CC1)c1cccc(S(=O)(=O)N2CCOCC2)c1`, the “hERG current change (%, negative = inhibition) at 1uM” value stood at 11.9%.

Take `CCN(CC(=O)Nc1ccccc1C(F)(F)F)CC(=O)NC1CC1`: the “hERG current change (%, negative = inhibition) at 1uM” value came to 15%.

`C=CCN(CC=C)C(=O)c1cccc(OC2CCN(S(=O)(=O)N(C)C)CC2)c1`: the “hERG current change (%, negative = inhibition) at 1uM” value turned out to be 12.5%.

On to `CC(=O)Nc1nonc1NC(=O)c1ccc(C(C)(C)C)cc1`, for which the “hERG current change (%, negative = inhibition) at 1uM” value is -3.61%.

For `CCCNC(=O)CN1C(=O)NC(CC)(c2ccc(F)cc2)C1=O` (stereo not drawn), the “hERG current change (%, negative = inhibition) at 1uM” value was determined as 13.8%.

Take `CN(C)/C=C(\C=[N+](C)C)c1[nH]ncc1[N+](=O)[O-].[O-][Cl+3]([O-])([O-])[O-]`: the “hERG current change (%, negative = inhibition) at 1uM” value turned out to be 8.38%.

For the compound `C=CCn1c(-c2cnn(-c3ccccc3)c2N)n[nH]c1=S`, the “hERG current change (%, negative = inhibition) at 1uM” value is listed as 18%.

As for `C/C(=N\OC(=O)NC(C)C)c1sc(-c2ccc(Cl)cc2)nc1C`, the “hERG current change (%, negative = inhibition) at 1uM” value is -5.86%.

As to `COc1cc2c(C#N)c(N3CCN(c4ccccc4OC)CC3)nc(N)c2c(N)n1`, the “hERG current change (%, negative = inhibition) at 1uM” value was found to be 9.28%.

As to `CN(C)S(=O)(=O)N1CCC(Cc2ccccc2)CC1`, the “hERG current change (%, negative = inhibition) at 1uM” value was -0.452%.

In the case of `CN1CCN(C(=O)c2ccc(CN3CCOCC3)cc2)CC1`, the “hERG current change (%, negative = inhibition) at 1uM” value is listed as 12%.

Turning to `CC(=O)Nc1nnc(C2=COCCO2)o1`, the “hERG current change (%, negative = inhibition) at 1uM” value stood at 10.9%.

With `CC1=CC(C)(C)N(S(=O)(=O)c2ccc(C)cc2)c2cc(C)ccc21`, the “hERG current change (%, negative = inhibition) at 1uM” value is reported as 11.6%.

In the case of `Cc1c(NC(=O)OCCNC(=O)COc2c(Cl)cccc2Cl)sc(=S)n1C`, the “hERG current change (%, negative = inhibition) at 1uM” value is recorded as -9.75%.

`Cc1ccc(C)c(NC(=O)C(Sc2nc3ccc(C)cc3[nH]2)c2ccccc2)c1` (stereo not drawn): the “hERG current change (%, negative = inhibition) at 1uM” value is reported as -1.07%.

Turning to `CCOC(=O)c1cnc(SSc2ncc(C(=O)OCC)c(N)n2)nc1N`, the “hERG current change (%, negative = inhibition) at 1uM” value came to 16.7%.

For `COC(=O)/C=C1\SC(=Nc2ccc(OC)cc2)NC1=O`, the “hERG current change (%, negative = inhibition) at 1uM” value worked out at 8.79%.

On to `Cc1nn(Cc2ccccc2)c(C)c1C(=O)OCC(=O)Nc1cc(S(C)(=O)=O)ccc1Cl`, for which the “hERG current change (%, negative = inhibition) at 1uM” value came to 2.83%.

In the case of `Cc1cccc(/C(N)=N/OC(=O)COc2ccccc2Cl)c1`, the “hERG current change (%, negative = inhibition) at 1uM” value was determined as 9.81%.

Consider `COc1ccc(NC(=O)CCC(=O)N2CCCC2)c([N+](=O)[O-])c1`, for which the “hERG current change (%, negative = inhibition) at 1uM” value came out at 4.02%.

With `Cc1ccc(-c2n[nH]c(=S)n2C)cc1Cl`, the “hERG current change (%, negative = inhibition) at 1uM” value was found to be 8.5%.

For the compound `O=C(O)c1cc([N+](=O)[O-])ccc1N1CCCCC1`, the “hERG current change (%, negative = inhibition) at 1uM” value worked out at 1.04%.

As to `Cc1ccc(N(CCC#N)C(=O)CN2C(=O)NC(Cc3ccccc3)C2=O)cc1` (stereo not drawn), the “hERG current change (%, negative = inhibition) at 1uM” value was determined as 7.96%.

For the compound `O=C(COC(=O)Cn1[nH]c(=O)c2ccccc2c1=O)NNC(=O)c1ccc(Br)cc1`, the “hERG current change (%, negative = inhibition) at 1uM” value is recorded as -0.694%.

Take `COC(=O)c1ccc2[nH]cc(CCO)c2c1`: the “hERG current change (%, negative = inhibition) at 1uM” value was found to be 15.5%.
